# From ChEMBL document CHEMBL4888484, “Replenishing the malaria drug discovery pipeline: Screening and hit evaluation of the MMV Hit Generation Library 1 (HGL1) against asexual blood stage Plasmodium falciparum ,using a nano luciferase reporter read-out” (2022)
# Several values for one entry are separate records, joined by “and”; a condition that tells them apart may be missing. Identical values can stand only once. About 540 (0.36%) of roughly 150,000 compounds showed an effect of 50% or more. This is one part of the list.
# System: Plasmodium falciparum
# Test: Primary screen in NF54 nanoGlo assay, in single point, at 2uM, 72h; a lower Z score goes with more inhibition
# Assay type: functional, Erythrocyte
# Settings: timepoint 72 hour
Structure (SMILES),% Inhibition [%],Z score,% Inhibition (2 µM)
Cc1nc(C(C)C)ncc1C(=O)N1CCN(C)[C@@]2(CCNC(=O)CC2)C1,-13,2.53,–
COc1ccccc1CN(C)c1cc([C@H]2CCOC2)ncn1,-4,0.76,–
Cc1nn(CC(=O)NCCN2CCCC[C@@H]2CO)cc1Cl,-3,0.62,–
O=C(CCc1ccc(-c2ccccc2)cc1)NC[C@H]1CCCCO1,-8,1.1,–
O=C(CN1CCCCC1)OC1CCCCCCCCCCC1,-13,1.71,–
Cc1ccccc1C(=O)NC1(c2cccs2)CCCC1,8,-1.1,–
O=C(N[C@@H]1CN(C2CCCC2)CC[C@@H]1CO)c1cccnc1,-16,2.1,–
COc1cc(Br)cc(C(=O)N2CCn3ncnc3C2)c1,-11,1.54,–
COc1cc(=O)n2c(c1C(=O)NCCC(C)C)CCN(C(=O)c1cnn(Cc3ccccc3)c1)CC2,-15,1.66,–
CCc1ccc(S(=O)(=O)N2CC(Oc3nc4ccccc4s3)C2)s1,-12,1.32,–
CC[C@H](NC(=O)Nc1ccccc1CCC(=O)NC)c1cn2cccnc2n1,-14,2.11,–
CC(C)[C@H]1CN(Cc2nnc(-c3ccccc3)o2)C[C@@H]1N(C)C,-6,0.74,–
COc1ccc(CN(C2CCCC2)S(=O)(=O)c2c(F)cccc2F)cc1OC(C)C,-15,2.05,–
CC(=O)N1CCN(C(=O)c2ccc(N(C)C)cc2)C[C@@H]1C(=O)N[C@@H](CC1CCCCC1)C(N)=O,2,-0.29,–
O=C(Nc1ccc(F)c(F)c1)c1cccn1Cc1noc(C2CC2)n1,-6,1,–
CC(C)Oc1ccc(CN2[C@H](CO)CN(C)C(=O)[C@@H]2C)cc1,-1,0.13,–
N#CC(NC(=O)c1cnn(-c2ccc(F)cc2)n1)C1CCOC1 (stereo not drawn),8,-0.87,–
CC(=Cc1ccc2ncccc2c1)c1cnccn1,0,0.07,–
O=C(O)[C@H]1[C@@H]2CN(Cc3ccccc3OC(F)F)C[C@@H]21,-17,1.54,–
CCOC(=O)NCC(=O)Nc1nc2ccsc2s1,-8,1.08,–
CC(C)CCNC(=O)c1nc2cccnc2n(C)c1=O,-9,1.06,–

Structure (SMILES),% Inhibition [%],Z score,% Inhibition (2 µM)
CCC(CO)Nc1cc(NC2CCCC2Cc2cnn(C)c2)ncn1 (stereo not drawn),6,-1.1,–
CCN(CC)C(=O)N1CCC[C@H](CCc2nnc(-c3cnccn3)o2)C1,-19,2.54,–
CCCc1c(C(=O)NC[C@H]2CCN(C)C2)nnn1-c1ccc(C(C)(C)C)cc1,-2,0.23,–
Cc1cccc(-c2nn(-c3ccccc3)c3nc(OCC(=O)N4CCOCC4)cc(C)c23)c1,-16,2.06,–
COc1c(C)cc(-c2ccc(C(=O)N[C@@H](C)Cn3cncn3)cc2)cc1C,-21,1.82,–
O=S(=O)(c1ccc(-c2cc(C(F)(F)F)n[nH]2)s1)N1CCc2ccccc21,-4,0.83,–
CS(=O)(=O)NCCC(=O)Nc1ccc2nscc2c1,12,-1.62,–
COc1ccc(OC)c([C@H](c2oc3ccccc3c2NC(=O)c2ccccc2)N2CCC(C)CC2)c1,-12,1.9,–
OC[C@@H]1CCC[C@H](CNCc2cc3ccc(F)cc3[nH]2)C1,1,-0.15,–
COc1ccc(-c2noc(CN3CCCc4cccc(F)c43)n2)cc1,-10,0.9,–
CC(=O)c1c(O)n(Nc2nc(C)cc(C)n2)c(C)cc1=O,–,–,-3% and -7%
O=C(c1cnc(CN2CCCC2)s1)N(Cc1ccncc1)C1CCCCC1,1,-0.09,–
Cc1nn(C)c(C)c1S(=O)(=O)N1CCc2nnc(C3CC3)n2CC1,-8,1.6,–
CN1C[C@@H]2CCC[C@H]1CN(C(=O)c1cc(Cl)ccc1O)C2,-14,2.11,–
COc1cccc(NC(=O)N[C@H]2CO[C@@H](CN3CCN(c4cccc(C(F)(F)F)c4)CC3)[C@@H]2O)c1,17,-1.99,–
Cn1ccnc1CN[C@H]1[C@H](O)[C@@H](n2cc(Cl)cn2)[C@@H]2OC[C@H]1O2,11,-1.32,–
Cc1noc(C)c1CNC(=O)[C@H]1CC[C@H](C)CC1,-12,1.59,–
CN(C)S(=O)(=O)n1cc(/C=C(\NC(=O)c2ccccc2F)C(=O)N2CCc3ccccc32)c2ccccc21,-13,2.17,–
COc1ccc(-c2noc3nc(C4CC4)cc(C(=O)Nc4ccn(C)n4)c23)cc1,31,-3.49,–
CCCn1ncc(C(=O)NCCCn2c(C)cccc2=O)c1C,-21,2.14,–
O=C(c1nn2c(C(F)(F)F)cc(-c3ccc(Br)cc3)nc2c1Br)N1CCN(Cc2ccccc2)CC1,-9,1.34,–

Structure (SMILES),% Inhibition [%],Z score,% Inhibition (2 µM)
CN(CCN)c1nccc2ccc(F)cc12,12,-1.26,–
O=C(COc1ccc(Cl)cc1)Nc1cccc(NC(=O)c2ccccc2Cl)c1,-10,1.31,–
C/C=C(\C)c1nnc(NC(=O)OCC)s1,-25,3,–
CC(C)N1C2CCC1CN(C(=O)c1[nH]nc(C3CC3)c1Cl)CC2 (stereo not drawn),-5,0.6,–
CCCN1C(=O)CC[C@@H]2CN(C(=O)c3cccc4[nH]c(C)nc34)CC[C@@H]21,-1,0.18,–
CC(C)N1CC2(CCN(C(=O)Cc3cccc(F)c3)CC2)[C@H]1c1ccccc1,0,0.06,–
Cn1cnc2c(C(=O)Nc3cccc(C(F)(F)F)c3)nn(-c3ccc(F)cc3)c2c1=O,4,-0.35,–
CN(C)S(=O)(=O)c1ccc(N2CCCCC2)c(C(=O)NCc2ccc(N3CCCC3=O)cc2)c1,12,-1.78,–
Cc1cc(NC(=O)N2CCC[C@@H]2CCCO)no1,-7,0.94,–
Cn1cc(-c2cc(-c3cc(F)c(F)c(F)c3)nc(N)c2C#N)cn1,-6,1.16,–
O=C(Cc1ccccc1F)Nc1cc(-c2ccccn2)no1,-14,1.34,–
CN(Cc1ccc(Cl)s1)C[C@H](O)COCc1cccs1,2,-0.35,–
Cn1nccc1[C@@H]1CCCN1Cc1ccc(N)nc1,-14,2.42,–
COc1ccc(NC(=O)Nc2ccc3c(c2)CCN3S(=O)(=O)c2ccccc2)c(OC)c1,-5,0.71,–
COc1cccc(C2CN(C(=O)c3ccccc3)CC2C(=O)NCc2ccc(F)cc2)c1OC (stereo not drawn),-11,1.12,–
Cc1nc(CN(C)C(=O)C[C@]2(c3ccccc3F)CC(=O)N(C3CCCCC3)C2=O)cs1,4,-0.73,–
COc1ncc(CNc2cccc3c2CCNC3=O)c(C)n1,-8,1.3,–
O=C(NCc1nc(Cn2cccn2)no1)NC1CCCCC1,-9,1.23,–
COCC1(CNC(=O)c2cnc(-c3csc(C)n3)nc2O)CCCC1,-13,2.53,–
O=S(=O)(Nc1ccn2ccnc2c1)c1cc(F)cc(Cl)c1,-1,0.1,–
CCc1c(C(=O)N(C)c2ncccc2F)nnn1-c1ccc(OC(C)C)cc1,-12,1.22,–

Structure (SMILES),% Inhibition [%],Z score,% Inhibition (2 µM)
COCCc1nc(-c2ccc3c(c2)ncn3CCO)n(CC(F)(F)F)n1,-5,0.94,–
Nc1ccccc1-c1ccccc1N(c1ccccc1)c1ccccc1,-8,0.97,–
O=C(c1ccco1)N(Cc1ccccc1OS(=O)(=O)c1ccc(F)cc1)CC1CC1,-9,1.17,–
O=C(Nc1cccc(Cc2nn[nH]n2)c1)N[C@@H](C1CC1)C(F)(F)F,-4,0.67,–
COc1ccc2c(c1)CCN(c1cncc(C(=O)N3CCOCC3)n1)CC2,5,-1.01,–
COc1ccc(CN2C[C@@H](CO)[C@H](NC(=O)c3ccncc3)C2)cc1C,-10,1.78,–
O=C(NCCn1nc(C2CC2)ccc1=O)c1cc(-c2cccc3ccccc23)n[nH]1,-9,1.76,–
COc1cccc(OCc2nc(C(=O)NCc3ccncc3C)co2)c1,-17,1.84,–
COCc1cc(=O)n(CC(=O)Nc2ccc(Cl)cc2)c(N2CCCC2)n1,5,-0.75,–
Cc1ccc(-c2cn[nH]c2[C@H]2CCCN(C(=O)c3cc4ncccn4n3)C2)cc1,5,-0.71,–
Cc1ccccc1OCC(=O)N1CCC[C@H](Oc2ncc(F)cn2)C1,8,-1.1,–
COc1cc(O)c(C(=O)Cc2csc(C)n2)cc1C,-4,0.58,–
CO[C@H]1CN(C(C)C)C[C@@H]1NC(=O)c1ccc(-c2cnc(N)nc2)cc1,-13,1.81,–
CC[C@H](C)N(Cc1csc(COc2ccccc2C)n1)C(=O)c1ccc(Cl)cc1,-3,0.49,–
O[C@@H](c1ncnn1-c1cccc(F)c1)C1CCCCC1,-11,1.36,–
CCN1CCN(C(C)(C)CNC(=O)C[C@H]2CCOC2)CC1,-11,2.1,–
CCCN1C[C@@H](NCc2ccccc2-c2ccc(C)o2)CC1=O,-5,0.84,–
O=C(COC[C@H]1CCCO1)N1CCC(c2ccc(F)c(F)c2)CC1,-12,1.27,–
CNc1ccnc(N2CCC3(CCC(=O)N([C@H]4CC[C@H](O)CC4)C3)CC2)n1,-2,0.35,–
